Measurements: the RNAGym collection of RNA variant scans (doi:10.7554/elife.90254)
The source gives no read counts; variants with many changes may rest on few reads.

B1: LINE1-mini (parent)
chain: GGCAGAGCUCAACACAGCGUGGCAAAGUGGCUGUGGCUAGACUGCC

Variants of: B1
Assay: self-cleavage, relative activity (ratio to wild type); higher = more cleavage; in vitro, sequencing; the parent is a self-cleaving ribozyme

Variant	self-cleavage
G17C C18U U28A	0.34
G17C G33C C37A	0.01
G17U G35C C46G	0.02
G17U G35C C46A	0.08
A16C G19U G35C A41G	0.05
G17C G19C U28C U34G	0.15
G17A G21A G35U A39C G40A	0.01
G17U A26G G30U C37G C42A	0.03
G17A G29C G33U U34C U38G	0.02
G17C C18A U34G	0.01
A16G C23G G27C G36A	0.08
G17A U32C U43G	0.19
G17A U32C U43A	0.08
A16U C37A G40C	0.06
A16U C31U U43A	0.01
G17A U28A G30A C37G G44U	0.01
A16C G21U C31U	0
A16G C23G U38G	0
A16U A24G G36A A39G	0.02
G17C C18A G19C G21A G29U C42U	0.13
G17A G21A G44U	0.01
A16G A25U U28C G40A	0.09
G17C G35C C45G	0.02
G17C G27A U38C	0.07

Variant	self-cleavage
A16U G17U C37G	0.36
A16G G19C G29C A41C C46A	0.02
A16G A26C G40U	0.02
G17C C23U A26U G33U	0.03
G17A G35U C42U	0
G17C U28G C46A	1.09
G17C U34A C42A	0.25
G17A A24G U38A	0.03
A16C G22C A41C C45U	0
G17A C23U G35A	0.17
G17A G21C G44C	0.08
A16U A25C C42G	0.11
A16C G19U A25C G29U	0.08
A16G C31A C46G	0.04
G17U U20A G22A	0.82
A16C G21A C31G	0.17
G17A A26U G27C	0.04
A16G C18A A25G C31U	0.04
G17A U34G G44C	0.03
A16U G22A A25C G29A A41U	0.11
G17U A24U C37G	0.02
G17U C23A G30C G36A U38G G40U	0.06
A16U A41G U43G	0.02
A16G C18A A25U G30A A39U	0.08

Variant	self-cleavage
A16C G29U G40U	0.02
A16U G36U A41U	0.09
A16C G19C G27U	0.6
A16U G17C G21U	1.18
G17C C23U U38A G40U	0.09
G17U C45G C46G	0.02
G17U G29C C42U	0.07
G17A A24U G30U U43A	0.04
G17U G29U U34A	0.01
G17C U34C C37U G44A	0.03
A16C G35U C42U	1.29
G17U G27U G36C	0.01
A16G A26G U28A G30U	0.11
G17A G19A U32G G36C U38G	0.02
A16U G40A G44U	0.31
A16U G17U U20C	0
G17A A24C U34C	0.05
A16U U20A C23A C37U U38C C46A	0.03
G17C C18U G29C G30U G36C	0.03
G17U G19C A25G G27A	0.18
A16C G30U U34C U43A	0.01
G17C A25C G40C C42U G44U	0.01
A16U G22U G30A U34C G35A G36A C37A C46U	0.02
G17A G27U G29A C31G U43A	0.01

Variant	self-cleavage
G17U A26C C45A C46U	0.01
G17A C18A G40U C42G	0.05
G17C G19C U32A G40A	0.04
A16U C23U G30A	0.18
A16G G19C G22C C46U	0.13
A16G G22U C31A	0.02
G17A G22U A24U U28G	0.2
G17C C18U C23U A25U A39G	0.05
G17C G35A A41U	0.06
A16G G27A U32C U43G	0.09
A16C G19U U20C C37G A41U C46G	0
G17A C45G C46A	0.03
G17C U20C C46U	0.05
G17U G19A G27C U34C G35A U38C G40A G44A	0.03
G17A C31A U34A C37A	0.01
G17A G27U C31U	0.29
G17U G21C C23U	1.24
A16G C18U A25C U34G	0.02
G17A G22C G35U C45A	0.02
G17A C23A G40C	0.04
G17U C37A G44U	0.01
A16U G17C G30A C37G G40U C45U	0.02
G17C C31U A41U C46U	0.02
G17C G22A C37U	0.07

Variant	self-cleavage
G17A G19A G40A A41G	0.06
A16U G17A C18G	0.02
G17C A39U C46A	0.06
A16C G27C U28A G30C G35C	0.02
A16G U28G U43A C45G	0.03
G17U A24G C31A G40A	0.01
G17C G27A G40U C46U	0
G17U C23G G29C C31U A39C	0.01
G17C U32A G33C G44C	0.02
A16U C18A G27U G44U	0.04
A16U A26C C37G G40A	0
A16G U28A A39U	0.09
A16U G22U A26C	0.03
G17C G22C C23U	0.52
G17U G22A G27U	0.22
A16U G17C G19C G35A	0.03
A16U G17A G19U U20G A25G	0.02
G17C G29U U34G C45A	0.05
G17U G21C C23A A26U	0.07
G17U G19A U34C C42G	0.03
A16U U20A U28C C31G	0.02
A16C G19C C31A	0
G17C C23U G30A C31A	1.58
G17C G22A C23U	1.23

Variant	self-cleavage
A16G G30C C37U	0.03
G17U G19C G27U G29C	0.59
A16G G27A G36U A39U	0.32
A16G G21U C42A	0.03
G17C C18U U32A G35C G40U	0.03
G17A C18U G21U	0.1
A16U G40A C46U	0.06
A16U G27U G33A G44A	0.03
A16U G27C G30U	0.16
A16G C23U G33U C42U	0.02
A16G G19C A24C G36C	0.01
G17U C23U A25C A26C C42U	0.05
G17C G22U G29U	0.12
A16C G30U C46G	0.03
A16U U20G U34G	0
A16U A24G G29U U32G G40U	0.1
A16U C18U G19U G35A	0.03
G17C U28G A41C	0.13
A16G G19U G27U	0.05
G17U C23U G27U G33C	0.08
A16U G29U G35U	0.02
A16G C18U G22A	0.37
G17C U38C U43A	0.08
A16G G29U G40A	0.03

Variant	self-cleavage
A16U G17U G35C G40U C42U	0.01
G17A C23U A41G	0.09
G17A C18A U28C G29C	0.5
G17U G22U C23A U32A C42A	0.03
G17A C18A A26U C37U	0.02
A16U A25C A39U	0.01
A16C U20C G21C C23G C45G	0.02
G17A C23U G33U A41C	0.01
G17U G33U G44U	0.01
A16C G19U G22C A24C C46U	0.08
A16C G19C U38A	0.33
G17A U28A G36A C45U	0.02
A16U G19A G27A G35A U38A U43C	0.03
A16G C18U U34A C42A G44A	0.01
G17U G19A G27A C31U C46G	0.13
A16G G30A G36C	0.06
A16U C31U G36C	0.03
A16G G33A G35A	0.17
G17U G22C G44C	0.06
A16C G21U C45A	0.05
A16G C18U G27U C37G	0.05
A16G U20A G21C U38A	0.02
G17U G27C G35A A39C	0.04
